# From the supplement of paper PMC8728848
# The other results are listed elsewhere or left out.
# B1: LICBM33A (Lactococcus lactis), Q9CE94 (protein)
# chain: MKKLLTGLLVAAGLLSVSLLIKTDTVSAHGYVQSPPARGYQGQLDSQSLGWTAAFNIYGNVISNPQSLEAPKGFPECGPADGRIASANGGLGQIGDFVLDNQTSSRWKKTSISTGSNIFTWKYTAPHKTTKWHYYMTKTGWDQNAPLKHSELELIGTINHDGSPATNNLSHTINIPTDRSGYHIVLAVWDVADTSNAFYNVIDINVNNKNASSQVFGPFL
# Legend:
# Experiment in all cases: glycan array binding signal (z-score within array); higher = stronger binding
# Conditions in all cases: glycan notation: IUPAC condensed, linker removed
# [1] = molecular target: Neu5Ac(a2-3)Gal(b1-4)GlcNAc(b1-3)[Neu5Ac(a2-3)Gal(b1-4)GlcNAc(b1-6)]GalNAc
# How it was run: (§1)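 Glycan array binding is given as a within-array Z-score, which can be read as non-binding when negative. The arrays, 3228 of them, came from the Consortium for Functional Glycomics database and were retained only where the protein sequence was available. Z-scores were averaged across arrays of the same protein sequence at different concentrations or buffers and across linkers.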
# [2] = molecular target: Neu5Ac(a2-3)Gal(b1-4)GlcNAc(b1-6)GalNAc
# How it was run: as §1
# [3] = molecular target: Neu5Ac(a2-3)Gal(b1-4)GlcNAc(b1-6)[Gal(b1-3)]GalNAc
# How it was run: as §1
# [4] = molecular target: Neu5Ac(a2-3)Gal(b1-4)GlcNAc(b1-6)[Neu5Ac(a2-3)Gal(b1-3)]GalNAc
# How it was run: as §1
# [5] = molecular target: Neu5Ac(a2-3)Gal(b1-4)GlcNAc6S
# How it was run: as §1
# [6] = molecular target: Neu5Ac(a2-3)Gal(b1-4)[Fuc(a1-3)]GlcNAc
# How it was run: as §1
# [7] = molecular target: Neu5Ac(a2-3)Gal(b1-4)[Fuc(a1-3)]GlcNAc(b1-2)Man
# How it was run: as §1
# [8] = molecular target: Neu5Ac(a2-3)Gal(b1-4)[Fuc(a1-3)]GlcNAc(b1-3)Gal
# How it was run: as §1
# [9] = molecular target: Neu5Ac(a2-3)Gal(b1-4)[Fuc(a1-3)]GlcNAc(b1-3)Gal(b1-4)GlcNAc
# How it was run: as §1
# [10] = molecular target: Neu5Ac(a2-3)Gal(b1-4)[Fuc(a1-3)]GlcNAc(b1-3)Gal(b1-4)[Fuc(a1-3)]GlcNAc(b1-3)Gal(b1-4)[Fuc(a1-3)]GlcNAc
# How it was run: as §1
# [11] = molecular target: Neu5Ac(a2-3)Gal(b1-4)[Fuc(a1-3)]GlcNAc(b1-3)GalNAc
# How it was run: as §1
# [12] = molecular target: Neu5Ac(a2-3)Gal(b1-4)[Fuc(a1-3)]GlcNAc(b1-6)[Gal(b1-3)]GalNAc
# How it was run: as §1
# [13] = molecular target: Neu5Ac(a2-3)Gal(b1-4)[Fuc(a1-3)]GlcNAc(b1-6)[Neu5Ac(a2-3)Gal(b1-3)]GalNAc
# How it was run: as §1
# [14] = molecular target: Neu5Ac(a2-3)Gal(b1-4)[Fuc(a1-3)]GlcNAc6S
# How it was run: as §1
# [15] = molecular target: Neu5Ac(a2-3)Gal6S(b1-4)GlcNAc
# How it was run: as §1
# [16] = molecular target: Neu5Ac(a2-3)Gal6S(b1-4)[Fuc(a1-3)]GlcNAc
# How it was run: as §1
# [17] = molecular target: Neu5Ac(a2-3)GalNAc
# How it was run: as §1
# [18] = molecular target: Neu5Ac(a2-3)GalNAc(b1-4)GlcNAc
# How it was run: as §1
# [19] = molecular target: Neu5Ac(a2-3)[GalNAc(b1-4)]Gal(b1-4)Glc
# How it was run: as §1
# [20] = molecular target: Neu5Ac(a2-3)[GalNAc(b1-4)]Gal(b1-4)GlcNAc
# How it was run: as §1
# [21] = molecular target: Neu5Ac(a2-3)[GalNAc(b1-4)]Gal(b1-4)GlcNAc(b1-3)GalNAc
# How it was run: as §1
# [22] = molecular target: Neu5Ac(a2-3)[Neu5Ac(a2-6)]GalNAc
# How it was run: as §1
# [23] = molecular target: Neu5Ac(a2-6)Gal
# How it was run: as §1
# [24] = molecular target: Neu5Ac(a2-6)Gal(b1-3)GlcNAc(b1-3)[Gal(b1-4)GlcNAc(b1-6)]Gal(b1-4)Glc
# How it was run: as §1
# [25] = molecular target: Neu5Ac(a2-6)Gal(b1-4)Glc
# How it was run: as §1
# [26] = molecular target: Neu5Ac(a2-6)Gal(b1-4)GlcNAc
# How it was run: as §1
# [27] = molecular target: Neu5Ac(a2-6)Gal(b1-4)GlcNAc(b1-2)Man
# How it was run: as §1
# [28] = molecular target: Neu5Ac(a2-6)Gal(b1-4)GlcNAc(b1-2)Man(a1-3)Man(b1-4)GlcNAc(b1-4)GlcNAc
# How it was run: as §1
# [29] = molecular target: Neu5Ac(a2-6)Gal(b1-4)GlcNAc(b1-2)Man(a1-3)[Gal(b1-4)GlcNAc(b1-2)Man(a1-6)]Man(b1-4)GlcNAc(b1-4)GlcNAc
# How it was run: as §1
# [30] = molecular target: Neu5Ac(a2-6)Gal(b1-4)GlcNAc(b1-2)Man(a1-3)[GlcNAc(b1-2)Man(a1-6)]Man(b1-4)GlcNAc(b1-4)GlcNAc
# How it was run: as §1
# [31] = molecular target: Neu5Ac(a2-6)Gal(b1-4)GlcNAc(b1-2)Man(a1-3)[GlcNAc(b1-4)][Neu5Ac(a2-6)Gal(b1-4)GlcNAc(b1-2)Man(a1-6)]Man(b1-4)GlcNAc(b1-4)GlcNAc
# How it was run: as §1
# [32] = molecular target: Neu5Ac(a2-6)Gal(b1-4)GlcNAc(b1-2)Man(a1-3)[Man(a1-6)]Man(b1-4)GlcNAc(b1-4)GlcNAc
# How it was run: as §1
# [33] = molecular target: Neu5Ac(a2-6)Gal(b1-4)GlcNAc(b1-2)Man(a1-3)[Neu5Ac(a2-3)Gal(b1-4)GlcNAc(b1-2)Man(a1-6)]Man(b1-4)GlcNAc(b1-4)GlcNAc
# How it was run: as §1
# [34] = molecular target: Neu5Ac(a2-6)Gal(b1-4)GlcNAc(b1-2)Man(a1-3)[Neu5Ac(a2-6)Gal(b1-4)GlcNAc(b1-2)Man(a1-6)]Man(b1-4)GlcNAc(b1-4)GlcNAc
# How it was run: as §1
# [35] = molecular target: Neu5Ac(a2-6)Gal(b1-4)GlcNAc(b1-2)Man(a1-3)[Neu5Ac(a2-6)Gal(b1-4)GlcNAc(b1-2)Man(a1-6)]Man(b1-4)GlcNAc(b1-4)[Fuc(a1-6)]GlcNAc
# How it was run: as §1
# [36] = molecular target: Neu5Ac(a2-6)Gal(b1-4)GlcNAc(b1-2)Man(a1-6)Man(b1-4)GlcNAc(b1-4)GlcNAc
# How it was run: as §1
# [37] = molecular target: Neu5Ac(a2-6)Gal(b1-4)GlcNAc(b1-2)Man(a1-6)[Gal(b1-4)GlcNAc(b1-2)Man(a1-3)]Man(b1-4)GlcNAc(b1-4)GlcNAc
# How it was run: as §1
# [38] = molecular target: Neu5Ac(a2-6)Gal(b1-4)GlcNAc(b1-2)Man(a1-6)[GlcNAc(b1-2)Man(a1-3)]Man(b1-4)GlcNAc(b1-4)GlcNAc
# How it was run: as §1
# [39] = molecular target: Neu5Ac(a2-6)Gal(b1-4)GlcNAc(b1-2)Man(a1-6)[Man(a1-3)]Man(b1-4)GlcNAc(b1-4)GlcNAc
# How it was run: as §1
# [40] = molecular target: Neu5Ac(a2-6)Gal(b1-4)GlcNAc(b1-2)[Neu5Ac(a2-6)Gal(b1-4)GlcNAc(b1-4)]Man(a1-3)[GlcNAc(b1-4)][Neu5Ac(a2-6)Gal(b1-4)GlcNAc(b1-2)[Neu5Ac(a2-6)Gal(b1-4)GlcNAc(b1-6)]Man(a1-6)]Man(b1-4)GlcNAc(b1-4)GlcNAc
# How it was run: as §1
# [41] = molecular target: Neu5Ac(a2-6)Gal(b1-4)GlcNAc(b1-2)[Neu5Ac(a2-6)Gal(b1-4)GlcNAc(b1-4)]Man(a1-3)[GlcNAc(b1-4)][Neu5Ac(a2-6)Gal(b1-4)GlcNAc(b1-4)Man(a1-6)]Man(b1-4)GlcNAc(b1-4)GlcNAc
# How it was run: as §1
# [42] = molecular target: Neu5Ac(a2-6)Gal(b1-4)GlcNAc(b1-2)[Neu5Ac(a2-6)Gal(b1-4)GlcNAc(b1-6)]Man(a1-6)[Neu5Ac(a2-6)Gal(b1-4)GlcNAc(b1-2)Man(a1-3)][GlcNAc(b1-4)]Man(b1-4)GlcNAc(b1-4)GlcNAc
# How it was run: as §1
# [43] = molecular target: Neu5Ac(a2-6)Gal(b1-4)GlcNAc(b1-3)Gal(b1-3)GlcNAc
# How it was run: as §1
# [44] = molecular target: Neu5Ac(a2-6)Gal(b1-4)GlcNAc(b1-3)Gal(b1-4)GlcNAc
# How it was run: as §1
# [45] = molecular target: Neu5Ac(a2-6)Gal(b1-4)GlcNAc(b1-3)Gal(b1-4)GlcNAc(b1-2)Man(a1-3)[Neu5Ac(a2-6)Gal(b1-4)GlcNAc(b1-3)Gal(b1-4)GlcNAc(b1-2)Man(a1-6)]GalNAc
# How it was run: as §1
binder,measurement,setting,value
B1,glycan array binding signal (z-score),[1],1.75
same,glycan array binding signal (z-score),[2],0.801
same,glycan array binding signal (z-score),[3],-0.237
same,glycan array binding signal (z-score),[4],-0.471
same,glycan array binding signal (z-score),[5],-0.6
same,glycan array binding signal (z-score),[6],-0.373
same,glycan array binding signal (z-score),[7],-1.11
same,glycan array binding signal (z-score),[8],-0.62
same,glycan array binding signal (z-score),[9],-0.445
same,glycan array binding signal (z-score),[10],-0.651
same,glycan array binding signal (z-score),[11],0.278
same,glycan array binding signal (z-score),[12],0.021
same,glycan array binding signal (z-score),[13],2.15
same,glycan array binding signal (z-score),[14],1.8
same,glycan array binding signal (z-score),[15],-0.469
same,glycan array binding signal (z-score),[16],-0.186
same,glycan array binding signal (z-score),[17],-1.08
same,glycan array binding signal (z-score),[18],0.769
same,glycan array binding signal (z-score),[19],-0.684
same,glycan array binding signal (z-score),[20],-0.305
same,glycan array binding signal (z-score),[21],-1.36
same,glycan array binding signal (z-score),[22],0.408
same,glycan array binding signal (z-score),[23],-0.155
same,glycan array binding signal (z-score),[24],-0.38
same,glycan array binding signal (z-score),[25],-0.251
same,glycan array binding signal (z-score),[26],0.468
same,glycan array binding signal (z-score),[27],-0.361
same,glycan array binding signal (z-score),[28],-0.027
same,glycan array binding signal (z-score),[29],-0.362
same,glycan array binding signal (z-score),[30],-0.214
same,glycan array binding signal (z-score),[31],-0.25
same,glycan array binding signal (z-score),[32],-0.403
same,glycan array binding signal (z-score),[33],-0.229
same,glycan array binding signal (z-score),[34],0.798
same,glycan array binding signal (z-score),[35],4.31
same,glycan array binding signal (z-score),[36],-0.632
same,glycan array binding signal (z-score),[37],-0.357
same,glycan array binding signal (z-score),[38],4.26
same,glycan array binding signal (z-score),[39],-0.79
same,glycan array binding signal (z-score),[40],-0.155
same,glycan array binding signal (z-score),[41],1.21
same,glycan array binding signal (z-score),[42],-0.179
same,glycan array binding signal (z-score),[43],-0.404
same,glycan array binding signal (z-score),[44],-0.043
same,glycan array binding signal (z-score),[45],4.82
